PubChem BioAssay (NCI)
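These data come from cells grown in 96-well plates and exposed to compound for 48 hours at five concentrations. At the GI50, growth is halved. TGI denotes the concentration required for complete inhibition of growth.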

Tested on: NCI-H322M lung
Experiment: NCI anticancer screen, dose series, 48 h

Row | Structure (SMILES) | GI50 [µM] | TGI [µM]
1 | Cc1c(C)c2ccc(OC/C=C3\CCC(=O)O3)cc2oc1=O | 13.4 | 27.4
2 | CC1=CCS(=O)(=O)C1C(O)C1=C(C)CCCC1(C)C (stereo unspecified) | – | > 100
3 | COc1cnc2c(c1)C(=O)c1c-2n(CCCN2CCCC2)c(=O)c2cc(Cl)ccc12 | 1.68 | 9.75
4 | Nc1nc(OCc2ccccc2)nc2[nH]ncc12 | 13.6 | 37.6
5 | CCC1=CC2CC(C(=O)OC)C1(N(C)C)C2=O (stereo unspecified) | – | > 100
6 | COC(=O)[C@]1(C)CCC[C@@]2(C)C1CCC1=C[C@@]3(C(C)C)CC[C@]12OO3 (stereo partly specified) | – | > 100
7 | COC(=O)c1cc(-c2c[nH]cc2C(=O)OCc2ccccc2)cn1S(=O)(=O)c1ccc(C)cc1 | – | > 100
8 | COc1ccc(-c2ccc(/C=N/n3c(COc4ccc(Cl)cc4)n[nH]c3=S)o2)c([N+](=O)[O-])c1 | 20 | 44.1
9 | CCCCCCCC(=O)N/N=C/c1ccc(Sc2nccn2C)c([N+](=O)[O-])c1 | – | 79.9
10 | O=[N+]([O-])c1ccc(CS(=O)Cc2ccccc2)cc1 (stereo unspecified) | – | > 100
11 | CC1=CC(=O)C(C(C)=Nc2ccccc2Cl)C(=O)O1 (stereo unspecified) | > 100 | > 100
12 | CCOc1ccc(NC(=O)CC2SC(N)=NC2=O)cc1 (stereo unspecified) | – | > 100
13 | C1=NCCOCCN=Cc2ccccc2OCc2cccc(n2)COc2ccccc21 | – | > 25
14 | O=C1CCC2(c3ccccc3)Nc3cc(Cl)ccc3N12 (stereo unspecified) | – | > 100
15 | Cc1cccc(Nc2cn(CCOc3ccccc3)c(=O)n(CCOc3ccccc3)c2=O)c1 | – | > 100
16 | Cn1c(COC(=O)NC2CCCCC2)c(COC(=O)NC2CCCCC2)c2ccc3cc(Cl)c(Cl)cc3c21 | – | > 100
17 | CCc1c2c(nc3cccc(N)c13)-c1cc3c(c(=O)n1C2)COC(=O)[C@]3(O)CC | 0.0354 | > 100
18 | O=C(CC(C(=O)c1cccs1)c1ccsc1)c1ccsc1 (stereo unspecified) | – | > 100
19 | CCOC(=O)C(O)(NC(=O)Nc1ccc(F)cc1)C(F)(F)F (stereo unspecified) | – | > 100
20 | NC1CNC(=O)c2cscc21 (stereo unspecified) | – | > 100
21 | CN(C)Cc1cc(N=Nc2ccccc2Cl)cc(CN(C)C)c1O | – | > 100
22 | O=C(Nc1ccc2c(c1)oc(=O)c1ccccc12)C(Cl)Cl | – | 47.9
23 | Cn1cc(-c2ccc3c(c2)CCN3C(=O)Cc2cccc(C(F)(F)F)c2)c2c(N)ncnc21 | 2.98 | 49.2
24 | CC(=O)OC1C2(CC3N4C(=O)C5(CO)SSC4(CC31O)C(=O)N5C)OC(C)C(C)(C)C2=O (stereo unspecified) | 0.184 | 0.53
25 | COC1OC(COC(=O)NCCCCC(=O)C(F)(F)F)C(O)C(O)C1O (stereo unspecified) | – | > 100
26 | CN=C(N)N/N=C(\C)c1ccc2oc3ccc(/C(C)=N/NC(N)=NC)cc3c2c1 | – | > 100

Row | Structure (SMILES) | GI50 [µM] | TGI [µM]
27 | O=C1c2ccccc2C(=O)C1C(c1ccc([N+](=O)[O-])cc1)C1C(=O)c2ccccc2C1=O | – | > 100
28 | CCO[C@@H]1C2C=CC(C2)[C@H]1[N+](=O)[O-] (stereo partly specified) | – | > 100
29 | CC(C)=CC(=O)CC(=O)C(=O)Nc1ccc(Cl)c(Cl)c1 | – | > 100
30 | COc1ccc2cc3n(c2c1)CCc1cc(OC)c(OC)cc1-3 | – | > 100
31 | CCOC(=O)CN1CCSC1=NC#N | – | > 100
32 | COc1cc(Oc2c(O)c(C)c(OC)c(C(C)=O)c2O)c(C(C)=O)c(O)c1C | – | > 100
33 | FC(F)(F)C12C34C=CC5(CCC6(C=CC1(CC3)O6)C52C(F)(F)F)O4 (stereo unspecified) | – | > 100
34 | COc1ccc(COCC(Cn2ccnc2)OCc2ccc(C(=O)O)cc2)cc1 (stereo unspecified) | – | > 100
35 | C[C@H](CS(C)(=O)=O)Nc1ncc2cc(Oc3ccc(F)cc3F)c(=O)n(C)c2n1 | > 25 | > 25
36 | O=C(Cc1ccccc1)N/N=C(\C1=Nc2ccc([N+](=O)[O-])cc2NC1O)C(O)c1ccc([N+](=O)[O-])cc1 (stereo unspecified) | – | > 100
37 | CCOC(=O)N1CCN(S(=O)(=O)c2oc(-c3ccc(Cl)cc3)nc2C#N)CC1 | > 100 | > 100
38 | NC(N)=NC(N)=Nc1c(F)c(F)c(F)c(F)c1F | – | > 100
39 | Fc1ccc(Nc2nc(NCCNc3ccnc4cc(Cl)ccc34)nc(N3CCOCC3)n2)cc1 | 11.8 | 24.5
40 | CC(C)[C@@H](COC(C)(C)C)N=CN1CCc2c([nH]c3ccccc23)C1 | – | > 100
41 | Cc1c2cnccc2nc2[nH]c3ccncc3c12 | – | 41.6
42 | CC(CCc1ccc2c(c1)c(=N)c1ccc(N)cc1n2O)CC(C)(C)C (stereo unspecified) | – | 2.88
43 | Cc1ccc2c(c1)ncn2-c1ncnc2c1CC(C)c1ccccc1N2C (stereo unspecified) | 0.454 | 17.1
44 | O=C1N[C@@H]([C@H](CCCCCO)OC(=O)c2ccccc2)CO1 | – | > 100
45 | CCOC(=O)c1c(C)n(Cc2ccc(Cl)cc2Cl)c2c1cc1oc(=O)c(=O)n3c(Cc4ccccc4)nc2c13 | 4.27 | 13.1
46 | COc1cc(/C=C(/c2ccccc2)[N+](=O)[O-])c(OC)c2c1OCO2 | 1.66 | 3.04
47 | O=C1CCC[C@H]2O[C@@H](COCc3ccccc3)C[C@@H]12 | – | > 100
48 | CSCC[C@H]1C(=O)N=C(N)N1C(=O)OCc1ccccc1 | – | > 100
49 | CN(C)CCNC(=O)c1ccc(Cl)c2c(Nc3ccc(S(N)(=O)=O)cc3)c3ccccc3nc12 | – | 11.6
50 | CC1CC2(CC[C@@H]1O)OCCO2 (stereo partly specified) | – | > 100
51 | Cc1cccc(C(C)(C)C)c1NC(=O)C(=O)C(c1cnc2ccccc2n1)[N+](=O)[O-] (stereo unspecified) | – | > 100
52 | O=C(CC(C(=O)c1ccsc1)c1ccccc1)c1cccs1 (stereo unspecified) | – | > 100

Row | Structure (SMILES) | GI50 [µM] | TGI [µM]
53 | N#CC1C(N)=NNC12Nc1ccccc1N2 (stereo unspecified) | > 100 | > 100
54 | CN(C)c1ccc(N=Nc2c([O-])ccc3ccccc23)cc1.[C-]#[O+].[C-]#[O+].[Ir] | > 100 | > 100
55 | C=C(C)[C@@H]1CC[C@@]2(C)[C@H]1[C@H]1CCC3[C@@]4(C)CC[C@H](O)C(C)(C)[C@@H]4CC[C@@]3(C)[C@]1(C)C[C@@H]2O (stereo partly specified) | – | > 100
56 | OC(c1ccccc1)(c1ccccc1)c1cccnc1 | – | > 100
57 | Cc1ccc(-n2cnc3c(N/N=C4\SCC(=O)N4c4ccccc4)ncnc32)cc1 | – | 25.4
58 | CC(CCCOC(c1ccccc1)(c1ccccc1)c1ccccc1)OC(=O)Nc1cc([N+](=O)[O-])cc([N+](=O)[O-])c1 (stereo unspecified) | – | > 100
59 | CCCCC[C@H]1C/C=C2/C(=O)C(Cl)=C[C@@H]2C/C=C\CCCC(=O)O[C@@H](CCCCC)C/C=C2/C(=O)C(Cl)=C[C@@H]2C/C=C\CCCC(=O)O1 | 0.702 | 2.52
60 | CCSc1nc(COC(=O)NC)c(COC(=O)NC)n1C | – | > 100
61 | CCOC(=O)C(NC(=O)NC(C(=O)OCC)C(=O)OCC)C(=O)OCC | – | > 100
62 | O=C(O)CCC1CCc2cccc3occ1c23 (stereo unspecified) | – | > 100
63 | COC1CC(n2cnc3c(N)ncnc32)OC1CO (stereo unspecified) | – | > 100
64 | C=C(Br)CN(CC(=C)Br)C(C)=O | – | > 100
65 | O=C(O)c1c[nH]cc1C(=O)O | – | > 100
66 | CC1OC(c2ccccc2)=CC(OCc2ccccc2)[C@H]1OCc1ccccc1 (stereo partly specified) | – | > 10
67 | CC1CC/C(=C\c2ccc(N(C)C)cc2)C(=O)/C1=C/c1ccc(N(C)C)cc1 (stereo unspecified) | – | > 100
68 | O=C(O)C/C(=C\c1ccccc1)C(=O)O | – | > 100
69 | O=C(O)c1cc2c(s1)C(=O)c1sccc1C2=O | – | 25.2
70 | Cc1nnc2sc(-c3ccc(-c4ccccc4Cl)o3)nn12 | – | > 100
71 | COC(=O)[C@@]12OC[C@]34C([C@@H](O)C1O)[C@@]1(C)CC(=O)C(O)=C(C)C1C[C@H]3OC(=O)[C@H](OC(=O)CC(C)C(F)(F)F)[C@H]42 (stereo partly specified) | – | 2.01
72 | O=c1[nH]cc(OCC(F)(F)F)c(=O)[nH]1 | – | > 100
73 | Cn1c(=O)nc2n(-c3ccc(Cl)cc3Cl)c3ccccc3nc-2c1=O | – | 20.4
74 | Fc1ccc(Nc2nccc(-c3c(-c4ccc(C(F)(F)F)cc4)nn4ncccc34)n2)cc1F | > 25 | > 25
75 | NCc1ccc(-n2c(-c3nonc3N)nc3cnccc32)cc1 | > 14.8 | > 25
76 | COc1ccc2c(C(=O)O)cc3cc(OC)c(OC)cc3c2c1 | – | > 100
77 | O=C1C=CC(=O)c2c(O)c(N[C@@H](Cc3ccccc3)C(=O)OCc3ccccc3)c(Cl)c(O)c21 | – | > 10
